Experimental data from PubChem BioAssay (NCI).
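How tested: cells in 96-well plates exposed to compound for 48 hours at five concentrations. Here, GI50 denotes the concentration required for 50% inhibition of growth. At the TGI there is no net growth.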

Test system: NCI-H322M lung
Experiment: DTP human tumour cell line panel, 48 h

Compound | GI50 [µM] | TGI [µM]
COc1cc2oc(-c3cccc(C(=O)Nc4ccc(Cl)cc4)c3)cc(=O)c2c(OCCNC(=O)[C@H](CO)NC(=O)OC(C)(C)C)c1OC | 22.1 | > 100
COc1ccc(NC(=O)Cn2c(/C=C/c3cccc(Br)c3)nc3ccccc3c2=O)cc1 | 13.6 | > 36
